The supplement of paper PMC4967469
The IC50 comes from the fitted curve, where viability falls to half of the control; where the fit passes the top or lowest dose, that dose stands as a limit. AUC sums up the same curve from the lowest dose to the 256-fold higher top dose; values near 1 show little effect. For some assays here: Where the top dose is marked as inferred, it was calculated from the reported fits.

Tests used:
Experiment in all cases: Viability of human cancer cell lines after 72 h of drug (GDSC screen)
VX-11e = compound: Cc1cnc(Nc2ccc(F)cc2Cl)nc1-c1c[nH]c(C(=O)N[C@H](CO)c2cccc(Cl)c2)c1 [VX-11e]; conditions: top dose 5.12 µM; top dose inferred
Procedure: (§1)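 Human cancer cell lines in 384-well plates, medium with 10% serum, drug for 72 h over a 256-fold dose range (nine 2-fold or five 4-fold steps up to the top dose). Adherent lines were fixed and stained with the nucleic acid dye Syto60, suspension lines read with resazurin; signal relative to control wells, capped at 0 and 100%. One two-parameter sigmoid per drug and line, fitted in a mixed model over all curves with the slope shared within a line.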

BIX02189 = compound: CN(C)Cc1cccc(N=C(c2ccccc2)c2c(O)[nH]c3cc(C(=O)N(C)C)ccc23)c1 [BIX02189]; conditions: top dose 20 µM; top dose inferred
Procedure: as §1

Doxorubicin = compound: COc1cccc2c1C(=O)c1c(O)c3c(c(O)c1C2=O)C[C@@](O)(C(=O)CO)C[C@@H]3O[C@H]1C[C@H](N)[C@H](O)[C@H](C)O1 [Doxorubicin]; conditions: top dose 1.024 µM
Procedure: as §1

Dimethyloxalylglycine = compound: COC(=O)CNC(=O)C(=O)OC [Dimethyloxalylglycine]; conditions: top dose 4000 µM; top dose inferred
Procedure: as §1

17-AAG = compound: C=CCNC1=C2C[C@@H](C)C[C@H](OC)[C@H](O)[C@@H](C)/C=C(\C)[C@H](OC(N)=O)[C@@H](OC)/C=C\C=C(/C)C(=O)NC(=CC1=O)C2=O [17-AAG]; conditions: top dose 1 µM
Procedure: as §1

CCT018159 = compound: CCc1cc(-c2n[nH]c(C)c2-c2ccc3c(c2)OCCO3)c(O)cc1O [CCT018159]; conditions: top dose 10 µM; top dose inferred
Procedure: as §1

UNC1215 = compound: O=C(c1ccc(C(=O)N2CCC(N3CCCC3)CC2)c(Nc2ccccc2)c1)N1CCC(N2CCCC2)CC1 [UNC1215]; conditions: top dose 1 µM; top dose inferred
Procedure: as §1

OSI-027 = compound: COc1cccc2cc(-c3nc([C@H]4CC[C@H](C(=O)O)CC4)n4ncnc(N)c34)[nH]c12 [OSI-027]; conditions: top dose 20 µM
Procedure: as §1

TG101348 = compound: Cc1cnc(Nc2ccc(OCCN3CCCC3)cc2)nc1Nc1cccc(S(=O)(=O)NC(C)(C)C)c1 [TG101348]; conditions: top dose 10.24 µM
Procedure: as §1

BMX-IN-1 (QL-XII-61) = compound: C=CC(=O)Nc1cc(-n2c(=O)ccc3cnc4ccc(-c5ccc(NS(C)(=O)=O)cc5)cc4c32)ccc1C [BMX-IN-1 (QL-XII-61)]; conditions: top dose 10 µM; top dose inferred
Procedure: as §1

Vismodegib = compound: CS(=O)(=O)c1ccc(C(=O)Nc2ccc(Cl)c(-c3ccccn3)c2)c(Cl)c1 [Vismodegib]; conditions: top dose 10 µM; top dose inferred
Procedure: as §1

Row | Cell Line | AUC (VX-11e) | IC50 (VX-11e) [µM] | AUC (BIX02189) | IC50 (BIX02189) [µM] | AUC (Doxorubicin) | IC50 (Doxorubicin) [µM] | AUC (Dimethyloxalylglycine) | IC50 (Dimethyloxalylglycine) [µM] | AUC (17-AAG) | IC50 (17-AAG) [µM] | AUC (CCT018159) | IC50 (CCT018159) [µM] | AUC (UNC1215) | IC50 (UNC1215) [µM] | AUC (OSI-027) | IC50 (OSI-027) [µM] | AUC (TG101348) | IC50 (TG101348) [µM] | AUC (BMX-IN-1 (QL-XII-61)) | IC50 (BMX-IN-1 (QL-XII-61)) [µM] | AUC (Vismodegib) | IC50 (Vismodegib) [µM]
1 | MZ1-PC (pancreas, adherent) | 0.403 | 0.162 | 0.88 | > 20 | 0.392 | 0.0299 | 0.307 | 62.6 | 0.933 | > 1 | 0.934 | > 10 | 0.951 | > 1 | 0.344 | 0.413 | 0.72 | 3.18 | 0.978 | > 10 | 0.976 | > 10
2 | BHT-101 (thyroid, adherent) | 0.614 | 0.667 | 0.976 | > 20 | 0.76 | 0.371 | 0.788 | 1820 | 0.894 | > 1 | 0.871 | 9.91 | 0.973 | > 1 | 0.668 | 3.74 | 0.877 | > 10.2 | 0.975 | > 10 | 0.876 | > 10
3 | KYSE-150 (oesophagus, adherent) | 0.977 | > 5.12 | 0.961 | > 20 | 0.318 | 0.0203 | 0.72 | 1020 | 0.487 | 0.0576 | 0.751 | 3.17 | 0.988 | > 1 | 0.818 | 10.7 | 0.938 | > 10.2 | 0.988 | > 10 | 0.842 | 6.62
4 | TE-8 (oesophagus, adherent) | 0.947 | > 5.12 | 0.92 | > 20 | 0.217 | 0.00884 | 0.719 | 1100 | 0.621 | 0.138 | 0.871 | > 10 | 0.982 | > 1 | 0.876 | > 20 | 0.98 | > 10.2 | 0.895 | > 10 | 0.957 | > 10
5 | PL4 (pancreas, adherent) | 0.969 | > 5.12 | 0.973 | > 20 | 0.746 | 0.334 | 0.479 | 219 | 0.884 | > 1 | 0.955 | > 10 | 0.985 | > 1 | 0.931 | > 20 | 0.954 | > 10.2 | 0.986 | > 10 | 0.963 | > 10
6 | G-401 (kidney, adherent) | 0.801 | 2.8 | 0.915 | > 20 | 0.372 | 0.0273 | 0.697 | 953 | 0.6 | 0.121 | 0.892 | > 10 | 0.982 | > 1 | 0.724 | 5.82 | 0.831 | 7.4 | 0.952 | > 10 | 0.954 | > 10
7 | COLO-800 (melanoma, adherent) | 0.975 | > 5.12 | 0.967 | > 20 | 0.572 | 0.1 | 0.704 | 920 | 0.71 | 0.239 | 0.925 | > 10 | 0.985 | > 1 | 0.203 | 0.171 | 0.757 | 3.42 | 0.938 | > 10 | 0.937 | > 10
8 | BE-13 (lymphoblastic leukaemia, suspension) | 0.852 | 3.57 | 0.794 | 8.55 | 0.42 | 0.0392 | 0.442 | 176 | 0.984 | > 1 | 0.931 | > 10 | 0.972 | > 1 | 0.383 | 0.609 | 0.721 | 2.58 | 0.873 | 8.59 | 0.967 | > 10
9 | TT2609-C02 (thyroid, adherent) | 0.846 | 4.09 | 0.956 | > 20 | 0.349 | 0.0237 | 0.282 | 57.5 | 0.385 | 0.0295 | 0.919 | > 10 | 0.985 | > 1 | 0.66 | 3.59 | 0.807 | 5.69 | 0.985 | > 10 | 0.98 | > 10
10 | ONS-76 (medulloblastoma, adherent) | 0.646 | 0.838 | 0.916 | > 20 | 0.332 | 0.021 | 0.495 | – | 0.936 | > 1 | 0.855 | 8.92 | 0.983 | > 1 | 0.286 | 0.295 | 0.712 | 2.68 | 0.982 | > 10 | 0.932 | > 10
11 | DMS-114 (small cell lung carcinoma, adherent) | 0.965 | > 5.12 | 0.939 | > 20 | 0.772 | 0.454 | 0.813 | 2580 | 0.934 | > 1 | 0.938 | > 10 | 0.983 | > 1 | 0.233 | 0.183 | 0.854 | 10.1 | 0.966 | > 10 | 0.985 | > 10
12 | NALM-6 (B-cell leukaemia, suspension) | 0.638 | 0.72 | 0.741 | 5.29 | 0.29 | 0.0184 | 0.32 | 86.6 | 0.97 | > 1 | 0.935 | > 10 | 0.99 | > 1 | 0.172 | 0.161 | 0.429 | 0.422 | 0.938 | > 10 | 0.946 | > 10
